Assay results reported in PubChem BioAssay (NCI).
“And” between values parts separate entries of the source, which are not always exact repeats. Equal values may be shown once.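 Interpolation was linear, between the two tested concentrations surrounding the appropriate level; five concentrations were tested over 48 hours in 96-well plates. Here, GI50 denotes the concentration required for 50% inhibition of growth. TGI: concentration producing complete growth inhibition.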

What follows are compounds tested on NCI-H322M lung (assay: growth of human tumour cells (NCI), 48 h).
CC(C)(C)OC(=O)NC(Cc1cnc[nH]1)C(=O)N1CCCC1C(N)=O (stereo unspecified) gave a TGI of over 100 µM. Cc1ccc(S(=O)(=O)Oc2cc(S(=O)(=O)O)cc3cc(S(=O)(=O)O)cc(N)c23)cc1 was tested, and the TGI was over 100 µM. Compound NC(=O)C(NC=O)c1ccccc1 (stereo unspecified) has a TGI of over 100 µM. C[C@H]1CC[C@@H]2[C@@H](C)[C@H]3[C@H](C[C@H]4[C@@H]5CC=C6C[C@@H](O)CC[C@]6(C)[C@H]5C[C@H](O)[C@]34C)N2C1 gave a TGI of over 100 µM. CCOC(=O)c1cc(C2CCN(Cc3ccccc3)C2=O)c(C(=O)C(=[N+]=[N-])C(C)=O)[nH]1 (stereo unspecified) showed a TGI of over 100 µM. In the case of CC[C@@H](C(=O)[C@@H](C)[C@@H](O)[C@H](C)CCc1ccc(C)c(O)c1C(=O)O)[C@H]1O[C@](CC)([C@H]2CC[C@](O)(CC)[C@H](C)O2)C[C@@H]1C, the TGI is reported as 9.13 µM. COc1ccc(C2=C(c3cc(OC)c(OC)c(OC)c3)C(=O)CC2)cc1 gave a GI50 of 6.84 µM and a TGI of over 100 µM. With [C-]#[O+].[Cl][Sn]([Cl])[Cl].[Cl][Sn]([Cl])[Cl].[Pt].c1ccncc1 the TGI was over 100 µM. CC(=O)OC[C@]12CC[C@@H]([C@@H](C)C(N)=O)[C@@H]1[C@H]1CC[C@@H]3[C@@]4(C)CC[C@H](OC(C)=O)C(C)(C)[C@@H]4CC[C@@]3(C)[C@]1(C)CC2 was tested, and the GI50 was 13 µM and the TGI was 27.2 µM. Cc1ccc2[nH]c3[nH]c(=O)[nH]c(=O)c3c2c1 showed a TGI of over 100 µM. C=C1Oc2nc3ccccc3c(=O)n2C1(C)C showed a TGI of over 100 µM. Compound CC(=O)Nc1cc2c(cc1O)CC[C@@H]1[C@@H]2CC[C@]2(C)[C@@H](O)CC[C@@H]12 has a TGI of over 100 µM. In the case of N=C(N)n1[nH]c2c(c1=O)CCCC2, the TGI is reported as over 100 µM. Cc1cccc2c(N)c3cccc(C(=O)NCCN(C)C)c3nc12 was tested, and the TGI was 0.516 µM. For CN(C)CC(CO)(CN(C)C)CN(C)C, the TGI was over 100 µM. Compound CN(C)CCCNc1nnc(NCCCN(C)C)c2c(=O)c3sccc3[nH]c12 has a TGI of over 56.1 µM. For COc1cc([C@@H]2c3cc4c(cc3[C@H](O)[C@H]3COC(=O)[C@H]23)OCO4)cc(OC)c1OC, the TGI was 50 µM and > 100 µM. COP1(=O)NCc2ncccc2O1 (stereo unspecified) was tested, and the TGI was over 100 µM. For CCCN(CCCCN1C(=O)c2ccccc2C1=O)CC1COc2ccccc2O1 (stereo unspecified), the TGI was over 100 µM. In the case of CCCCNC(=O)Nc1c(C(N)=O)c2n(c1C(=O)OCC)CCCCC2, the TGI is reported as over 100 µM. Compound Cc1ccc(S(=O)(=O)Oc2ccc(OS(=O)(=O)c3ccc(C)cc3)c3c2C(=O)c2ccccc2C3=O)cc1 has a TGI of over 100 µM. Work on COc1cccc(C2NC(=S)NC(C)=C2C(=O)Nc2ccc(F)c(Cl)c2)c1 (stereo unspecified) yielded a GI50 of 29.9 µM and a TGI of over 50 µM. Work on O=c1c2cc(Br)cc(Br)c2[nH]c(=S)n1-c1ccccc1 yielded a TGI of over 100 µM. Work on COC(=O)N/N=C/c1oc(-c2ccccc2)c(-c2ccccc2)c1[N+](=O)[O-] yielded a TGI of over 100 µM. Work on O=C1NC(=O)C(C(c2ccc(Cl)cc2)C2C(=O)NC(=O)NC2=O)C(=O)N1 yielded a TGI of over 100 µM. Compound N#CN1CCC[C@H]1C(=O)N1CCc2c(-c3[nH]nc4ncccc34)cccc21 has a GI50 of 0.0429 µM and a TGI of 18.2 µM. Compound CC1=C([Se]CC(OC(=O)[C@@H](CO)NC(=O)OC(C)(C)C)C(=O)NC(C)(C)C)C(=O)c2ccccc2C1=O (stereo partly specified) has a GI50 of 0.447 µM and a TGI of 3.75 µM. With CCOc1ccc(/C=C/[N+](=O)[O-])cc1 the GI50 was 27.2 µM and the TGI was 71 µM. With COC(=O)NN=C(c1ccc(Cl)cc1)c1ccc(Cl)cc1 the TGI was over 100 µM. CN1C2C=C(c3ccccc3)CC1CC2 (stereo unspecified) showed a TGI of over 100 µM. With C=C1CCC2C3(C)COC(c4ccc(SC)cc4)OC3CCC2(C)C1C/C=C1/C(=O)OCC1O (stereo unspecified) the GI50 was 13.5 µM and the TGI was 28.9 µM. With C#COc1cccc(Nc2ncnc3ncc(NC(=O)CCl)cc23)c1 the GI50 was over 62.5 µM and the TGI was over 62.5 µM. CC(C)N=C(NC#N)NS(=O)(=O)c1cnccc1Nc1ccc(Cl)cc1 was tested, and the TGI was over 100 µM.
